Data reported in the supplement of paper PMC4967469.
pIC50: −log10 of the molar value. By IC50 is meant the dose at which the fit gives 50% viability; a limit (>, <) means that the fit lies beyond the doses tested. AUC is the area under the same curve over the 256-fold range up to the top dose, as a fraction; the more sensitive the line, the further below 1. Where the top dose is marked as inferred, it comes from the curve model; the source does not state it.

Legend:
Assay in all cases: Viability of human cancer cell lines after 72 h of drug (GDSC screen)
GSK-1904529A = compound: CCc1cc(Nc2nccc(-c3c(-c4ccc(OC)c(C(=O)Nc5c(F)cccc5F)c4)nc4ccccn34)n2)c(OC)cc1N1CCC(N2CCN(S(C)(=O)=O)CC2)CC1 [GSK-1904529A]; details: top dose 1.024 µM; top dose inferred
Description: (§1)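 Human cancer cell lines in 384-well plates, medium with 10% serum, drug for 72 h over a 256-fold dose range (nine 2-fold or five 4-fold steps up to the top dose). Adherent lines were fixed and stained with the nucleic acid dye Syto60, suspension lines read with resazurin; signal relative to control wells, capped at 0 and 100%. One two-parameter sigmoid per drug and line, fitted in a mixed model over all curves with the slope shared within a line.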

Tipifarnib = compound: Cn1cncc1[C@@](N)(c1ccc(Cl)cc1)c1ccc2c(c1)c(-c1cccc(Cl)c1)cc(=O)n2C [Tipifarnib]; details: top dose 16 µM; top dose inferred
Description: as §1

BMS-509744 = compound: COc1cc(C)c(Sc2cnc(NC(=O)c3ccc(CNC(C)C(C)(C)C)cc3)s2)cc1C(=O)N1CCN(C(C)=O)CC1 [BMS-509744]; details: top dose 10.24 µM; top dose inferred
Description: as §1

NG-25 = compound: CCN1CCN(Cc2ccc(NC(=O)c3ccc(C)c(Oc4ccnc5[nH]ccc45)c3)cc2C(F)(F)F)CC1 [NG-25]; details: top dose 10.24 µM; top dose inferred
Description: as §1

PFI-1 = compound: COc1ccccc1S(=O)(=O)Nc1ccc2c(c1)CN(C)C(=O)N2 [PFI-1]; details: top dose 10 µM; top dose inferred
Description: as §1

| Cell Line | AUC (GSK-1904529A) | pIC50 (GSK-1904529A) | AUC (Tipifarnib) | pIC50 (Tipifarnib) | AUC (BMS-509744) | pIC50 (BMS-509744) | AUC (NG-25) | pIC50 (NG-25) | AUC (PFI-1) | pIC50 (PFI-1) |
| --- | --- | --- | --- | --- | --- | --- | --- | --- | --- | --- |
| SCH (stomach, adherent) | 0.988 | < 5.99 | 0.988 | < 4.80 | 0.985 | < 4.99 | 0.908 | < 4.99 | 0.98 | < 5.00 |
| NALM-6 (B-cell leukaemia, suspension) | 0.977 | < 5.99 | 0.15 | 6.97 | 0.848 | 5.24 | 0.529 | 6.12 | 0.861 | 5.20 |
| LXF-289 (lung adenocarcinoma, adherent) | 0.982 | < 5.99 | 0.66 | 5.56 | 0.818 | 5.25 | 0.89 | < 4.99 | 0.9 | < 5.00 |
| RL (B-cell lymphoma, suspension) | 0.989 | < 5.99 | 0.984 | < 4.80 | 0.891 | < 4.99 | 0.185 | 7.09 | 0.904 | < 5.00 |
| COLO-824 (breast, adherent) | 0.984 | < 5.99 | 0.843 | 4.93 | 0.986 | < 4.99 | 0.881 | < 4.99 | 0.965 | < 5.00 |
| LS-1034 (large intestine, adherent) | 0.986 | < 5.99 | 0.586 | 5.75 | 0.847 | 5.06 | 0.8 | 5.26 | 0.921 | < 5.00 |
| CA46 (Burkitt lymphoma, suspension) | 0.98 | < 5.99 | 0.621 | 5.66 | 0.878 | < 4.99 | 0.475 | 6.26 | 0.719 | 5.56 |
| LC-2-ad (lung adenocarcinoma, adherent) | 0.975 | < 5.99 | 0.483 | 6.05 | 0.727 | 5.54 | 0.759 | 5.44 | 0.906 | < 5.00 |
| NU-DUL-1 (B-cell lymphoma, suspension) | 0.988 | < 5.99 | 0.805 | 5.20 | 0.903 | 5.06 | 0.223 | 6.91 | 0.913 | 5.02 |
| TC-71 (Ewing sarcoma, adherent) | 0.992 | < 5.99 | 0.961 | < 4.80 | 0.982 | < 4.99 | 0.787 | 5.44 | 0.831 | 5.31 |
| NCI-H1666 (lung adenocarcinoma, semi-adherent) | 0.986 | < 5.99 | 0.983 | < 4.80 | 0.983 | < 4.99 | 0.98 | < 4.99 | 0.805 | 5.25 |
| OCI-LY-19 (B-cell lymphoma, suspension) | 0.987 | < 5.99 | 0.388 | 6.30 | 0.851 | 5.16 | 0.686 | 5.69 | 0.879 | 5.05 |
| ES6 (Ewing sarcoma, adherent) | 0.964 | < 5.99 | 0.43 | 6.21 | 0.67 | 5.67 | 0.829 | 5.07 | 0.959 | < 5.00 |
| HOP-62 (lung adenocarcinoma, adherent) | 0.985 | < 5.99 | 0.677 | 5.51 | 0.814 | 5.26 | 0.805 | 5.29 | 0.777 | 5.40 |
| MZ2-MEL (melanoma, adherent) | 0.96 | < 5.99 | 0.584 | 5.75 | 0.795 | 5.25 | 0.846 | 5.03 | 0.87 | < 5.00 |
| SUP-HD1 (Hodgkin lymphoma, suspension) | 0.988 | < 5.99 | 0.672 | 5.53 | 0.903 | < 4.99 | 0.831 | 5.22 | 0.875 | 5.05 |
| JVM-3 (lymphoid neoplasm, suspension) | 0.987 | < 5.99 | 0.966 | < 4.80 | 0.987 | < 4.99 | 0.905 | < 4.99 | 0.783 | 5.37 |
| LNCaP-Clone-FGC (prostate, adherent) | 0.97 | < 5.99 | 0.822 | 4.95 | 0.967 | < 4.99 | 0.866 | < 4.99 | 0.813 | 5.19 |
| AMO-1 (haematopoietic neoplasm, suspension) | 0.985 | < 5.99 | 0.785 | 5.23 | 0.931 | < 4.99 | 0.761 | 5.50 | 0.761 | 5.51 |
| MONO-MAC-6 (acute myeloid leukaemia, suspension) | 0.967 | < 5.99 | 0.666 | 5.52 | 0.83 | 5.16 | 0.189 | 7.15 | 0.795 | 5.30 |
| MOLP-8 (myeloma, suspension) | 0.981 | < 5.99 | 0.207 | 6.84 | 0.653 | 5.78 | 0.661 | 5.75 | 0.68 | 5.71 |
| TE-1 (oesophagus, adherent) | 0.969 | < 5.99 | 0.613 | 5.65 | 0.838 | 5.01 | 0.978 | < 4.99 | 0.909 | < 5.00 |
| NB14 (neuroblastoma, adherent) | 0.986 | < 5.99 | 0.878 | 4.84 | 0.948 | < 4.99 | 0.798 | 5.34 | 0.938 | < 5.00 |
| LB1047-RCC (kidney, adherent) | 0.955 | < 5.99 | 0.862 | < 4.80 | 0.896 | < 4.99 | 0.75 | 5.43 | 0.807 | 5.23 |

| Cell Line | AUC (GSK-1904529A) | pIC50 (GSK-1904529A) | AUC (Tipifarnib) | pIC50 (Tipifarnib) | AUC (BMS-509744) | pIC50 (BMS-509744) | AUC (NG-25) | pIC50 (NG-25) | AUC (PFI-1) | pIC50 (PFI-1) |
| --- | --- | --- | --- | --- | --- | --- | --- | --- | --- | --- |
| ROS-50 (B-cell leukaemia, suspension) | 0.983 | < 5.99 | 0.922 | < 4.80 | 0.925 | < 4.99 | 0.64 | 5.76 | 0.97 | < 5.00 |
| LOXIMVI (melanoma, semi-adherent) | 0.935 | < 5.99 | 0.942 | < 4.80 | 0.948 | < 4.99 | 0.958 | < 4.99 | 0.845 | 5.22 |
| TE-6 (oesophagus, adherent) | 0.986 | < 5.99 | 0.729 | 5.29 | 0.939 | < 4.99 | 0.901 | < 4.99 | 0.956 | < 5.00 |
| JM1 (B-cell lymphoma, suspension) | 0.99 | < 5.99 | 0.765 | 5.30 | 0.901 | 5.00 | 0.813 | 5.34 | 0.832 | 5.29 |
| WIL2-NS (lymphoid neoplasm, suspension) | 0.992 | < 5.99 | 0.761 | 5.33 | 0.934 | < 4.99 | 0.808 | 5.38 | 0.825 | 5.34 |
| P32-ISH (Burkitt lymphoma, suspension) | 0.986 | < 5.99 | 0.7 | 5.51 | 0.904 | 5.12 | 0.551 | 6.07 | 0.802 | 5.45 |
| GB-1 (glioma, adherent) | 0.98 | < 5.99 | 0.567 | 5.80 | 0.858 | < 4.99 | 0.745 | 5.43 | 0.975 | < 5.00 |
| NCI-H1836 (small cell lung carcinoma, suspension) | 0.988 | < 5.99 | 0.889 | < 4.80 | 0.963 | < 4.99 | 0.984 | < 4.99 | 0.943 | < 5.00 |
| NCI-H1869 (lung squamous cell carcinoma, adherent) | 0.973 | < 5.99 | 0.881 | < 4.80 | 0.982 | < 4.99 | 0.92 | < 4.99 | 0.9 | < 5.00 |
| YT (lymphoid neoplasm, suspension) | 0.989 | < 5.99 | 0.559 | 5.85 | 0.935 | < 4.99 | 0.671 | 5.75 | 0.973 | < 5.00 |
| NCI-H446 (small cell lung carcinoma, semi-adherent) | 0.986 | < 5.99 | 0.961 | < 4.80 | 0.929 | < 4.99 | 0.78 | 5.34 | 0.762 | 5.42 |
| MHH-PREB-1 (B-cell leukaemia, suspension) | 0.988 | < 5.99 | 0.693 | 5.49 | 0.894 | 5.00 | 0.535 | 6.10 | 0.759 | 5.50 |
| SUP-M2 (anaplastic large cell lymphoma, suspension) | 0.994 | < 5.99 | 0.715 | 5.47 | 0.885 | 5.18 | 0.902 | 5.11 | 0.76 | 5.55 |
| OVCAR-4 (ovary, adherent) | 0.972 | < 5.99 | 0.595 | 5.68 | 0.828 | < 4.99 | 0.828 | < 4.99 | 0.857 | < 5.00 |
| NCI-H1838 (lung adenocarcinoma, adherent) | 0.984 | < 5.99 | 0.983 | < 4.80 | 0.951 | < 4.99 | 0.965 | < 4.99 | 0.924 | < 5.00 |
| KNS-81-FD (glioma, adherent) | 0.932 | < 5.99 | 0.712 | 5.30 | 0.948 | < 4.99 | 0.877 | < 4.99 | 0.904 | < 5.00 |
| NOS-1 (osteosarcoma, adherent) | 0.945 | < 5.99 | 0.631 | 5.60 | 0.645 | 5.75 | 0.739 | 5.44 | 0.876 | < 5.00 |
| EW-24 (Ewing sarcoma, semi-adherent) | 0.992 | < 5.99 | 0.973 | < 4.80 | 0.99 | < 4.99 | 0.987 | < 4.99 | 0.958 | < 5.00 |
| NCI-H1694 (small cell lung carcinoma, suspension) | 0.989 | < 5.99 | 0.947 | < 4.80 | 0.938 | < 4.99 | 0.968 | < 4.99 | 0.928 | < 5.00 |
| THP-1 (acute myeloid leukaemia, suspension) | 0.991 | < 5.99 | 0.963 | < 4.80 | 0.963 | < 4.99 | 0.839 | 5.22 | 0.884 | 5.05 |
| NCI-H1092 (small cell lung carcinoma, suspension) | 0.962 | < 5.99 | 0.906 | < 4.80 | 0.941 | < 4.99 | 0.928 | < 4.99 | 0.986 | < 5.00 |
| KP-N-YN (neuroblastoma, adherent) | 0.987 | < 5.99 | 0.963 | < 4.80 | 0.934 | < 4.99 | 0.986 | < 4.99 | 0.832 | 5.14 |
| NCI-H1304 (small cell lung carcinoma, suspension) | 0.988 | < 5.99 | 0.981 | < 4.80 | 0.988 | < 4.99 | 0.98 | < 4.99 | 0.94 | < 5.00 |
| ME-1 (acute myeloid leukaemia, suspension) | 0.989 | < 5.99 | 0.882 | < 4.80 | 0.969 | < 4.99 | 0.908 | < 4.99 | 0.949 | < 5.00 |
